{"source": "paper PMC12640937", "about": "“Integrating drug effects on individual cardiac ionic currents and cardiac action potentials to understand nonclinical translation to clinical ECG changes” (Frontiers in Pharmacology, 2025)", "key": {"[1]": {"system": "adult human primary ventricular trabeculae", "conditions": "ref Page et al., 2016, cited from earlier work"}, "[2]": {"system": "adult human primary ventricular trabeculae", "assay": "Action potential recordings from adult human ventricular trabeculae (sharp electrode)", "conditions": "for change in APD: diltiazem 3.84 then 38.4 µM or nifedipine 0.23 then 1 µM, alone"}}, "note": "Where two headings read alike, the source gives them in different places."}
{"smiles": "COc1ccc(CCN(C)CCCC(C#N)(c2ccc(OC)c(OC)c2)C(C)C)cc1OC", "note": "(stereo not shown) [verapamil]", "values": [{"measurement": "change in APD30, APD50, APD90", "setting": "[1]", "value": "did not alter APD30, APD50, or APD90"}]}
{"smiles": "CN(CCOc1ccc(NS(C)(=O)=O)cc1)CCc1ccc(NS(C)(=O)=O)cc1", "note": "[dofetilide]", "values": [{"measurement": "change in APD30, APD50, APD90", "setting": "[2]; dofetilide 0.01 µM added to 38.4 µM diltiazem or 1 µM nifedipine", "value": "further decreases in APD30 and APD50, whereas APD90 did not change"}, {"measurement": "change in APD30, APD50, APD90", "setting": "[2]; dofetilide 0.1 µM added to 38.4 µM diltiazem or 1 µM nifedipine", "value": "an increase in APD90, but not APD30 or APD50"}, {"measurement": "change in APD30, APD50, APD90", "setting": "[2]; dofetilide 0.1 µM alone, 1 Hz", "value": "prolonged APD30, APD50, and APD90"}, {"measurement": "average percent change in APD90", "setting": "[1]; 100 nM dofetilide, 25 experiments, 11 donors, 95% CI 53.4% and 106.7%, Qu et al., 2017", "value": 80.1, "unit": "%"}]}
{"smiles": "COC(=O)C1=C(C)NC(C)=C(C(=O)OC)C1c1ccccc1[N+](=O)[O-]", "note": "[nifedipine]", "values": [{"measurement": "change in APD", "setting": "[2]", "value": "concentration-dependent APD shortening"}]}
{"smiles": "COc1ccc([C@@H]2Sc3ccccc3N(CCN(C)C)C(=O)[C@@H]2OC(C)=O)cc1", "note": "[diltiazem]", "values": [{"measurement": "change in APD", "setting": "[2]", "value": "concentration-dependent APD shortening"}]}
